This note sets out measurements from the supplement of paper PMC4967469.

The IC50 comes from the fitted curve, where viability falls to half of the control; a limit (>, <) means that the fit lies beyond the doses tested. AUC, from the same fit, is the share of area under the viability curve across the 256-fold dose range: 1 means no effect, lower means more sensitive. For part of these data: A top dose marked as inferred was derived from the fitted curves, not read from the paper. For part of these data: Drugs with an entry number were screened twice under separate entries, and the two screens often disagree.

Common to all, as to test: Viability of human cancer cell lines after 72 h of drug (GDSC screen)
Compound in one assay: CC1(C)CC(=O)c2c(C(F)(F)F)nn(-c3ccc(C(N)=O)c(N[C@H]4CC[C@H](O)CC4)c3)c2C1 [SNX-2112]
Conditions: top dose 2.56 µM. The method, then: (§1)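 Human cancer cell lines in 384-well plates, medium with 10% serum, drug for 72 h over a 256-fold dose range (nine 2-fold or five 4-fold steps up to the top dose). Adherent lines were fixed and stained with the nucleic acid dye Syto60, suspension lines read with resazurin; signal relative to control wells, capped at 0 and 100%. One two-parameter sigmoid per drug and line, fitted in a mixed model over all curves with the slope shared within a line.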

Compound in a further assay: CC[C@]1(O)C[C@@H]2CN(CCc3c([nH]c4ccccc34)[C@@](C(=O)OC)(c3cc4c(cc3OC)N(C)[C@H]3[C@@](O)(C(=O)OC)[C@H](OC(C)=O)[C@]5(CC)C=CCN6CC[C@]43[C@@H]65)C2)C1 [Vinblastine]
Conditions: top dose 0.1 µM; top dose inferred. The method, then:
as §1

Compound in a further assay: CN(C)C/C=C/C(=O)Nc1cc2c(Nc3ccc(F)c(Cl)c3)ncnc2cc1O[C@H]1CCOC1 [Afatinib]
The protocol:
as §1

Compound in another assay: O=C(NC1CC1)c1cccc(-c2ccc3c(NC(=O)C4CC4)n[nH]c3c2)c1 [XMD13-2]
Conditions: top dose 10.24 µM; top dose inferred. The protocol: as §1

Setting [1] is: top dose 0.5 µM, screen: GDSC drug entry 1032.
Where [2] appears, read: top dose 10 µM, screen: GDSC drug entry 1377, top dose inferred.

Take OV-17R (ovary, adherent): the AUC with SNX-2112 came out at 0.642; with Vinblastine, 0.958; with Afatinib (setting [1]), 0.948; in the assay with Afatinib (setting [2]), 0.927; with XMD13-2 it was 0.921. Moreover, the IC50 (commonly the point on the concentration scale where inhibition reaches its midpoint) with SNX-2112 was 462 nM; with Vinblastine it was greater than 100 nM; with Afatinib (setting [1]), greater than 500 nM; with Afatinib (setting [2]), greater than 10000 nM; with XMD13-2 it was greater than 10200 nM.

OV-56 (ovary, adherent): the AUC is 0.793 in the assay with SNX-2112; 0.699 with Vinblastine; 0.989 with Afatinib (setting [1]); 0.969 with Afatinib (setting [2]); 0.955 with XMD13-2. The IC50 in the assay with SNX-2112 was 1110 nM; with Vinblastine, 22.1 nM; with Afatinib (setting [1]), greater than 500 nM; in the assay with Afatinib (setting [2]) it was greater than 10000 nM; with XMD13-2 it was greater than 10200 nM.

In the case of OVCA420 (ovary, adherent), the AUC came out at 0.493 with SNX-2112; 0.971 with Vinblastine; 0.58 with Afatinib (setting [1]); 0.27 with Afatinib (setting [2]); 0.975 with XMD13-2. The IC50 was 152 nM with SNX-2112; greater than 100 nM with Vinblastine; 55.8 nM with Afatinib (setting [1]); 109 nM with Afatinib (setting [2]); greater than 10200 nM with XMD13-2.

As for OVCA433 (ovary, adherent), the AUC with SNX-2112 is 0.914; in the assay with Vinblastine it was 0.665; with Afatinib (setting [1]), 0.931; with Afatinib (setting [2]), 0.893; in the assay with XMD13-2, 0.957. Also, the IC50 with SNX-2112 was greater than 2560 nM; with Vinblastine, 19.1 nM; with Afatinib (setting [1]), greater than 500 nM; with Afatinib (setting [2]), greater than 10000 nM; in the assay with XMD13-2, greater than 10200 nM.

For the cell line OVK-18 (ovary, adherent), the AUC with SNX-2112 is 0.972; in the assay with Vinblastine, 0.545; with Afatinib (setting [1]), 0.984; in the assay with Afatinib (setting [2]), 0.972; with XMD13-2, 0.985. The IC50 with SNX-2112 was greater than 2560 nM; in the assay with Vinblastine, 8.41 nM; in the assay with Afatinib (setting [1]), greater than 500 nM; with Afatinib (setting [2]), greater than 10000 nM; with XMD13-2, greater than 10200 nM.

Regarding PEO1 (ovary, adherent), the AUC with SNX-2112 stood at 0.923; with Vinblastine, 0.565; with Afatinib (setting [1]), 0.868; with Afatinib (setting [2]), 0.889; with XMD13-2 it was 0.946. The IC50 with SNX-2112 was greater than 2560 nM; with Vinblastine, 9.47 nM; with Afatinib (setting [1]), 489 nM; with Afatinib (setting [2]), greater than 10000 nM; with XMD13-2 it was greater than 10200 nM.

As to PWR-1E (prostate, adherent), the AUC is 0.434 with Vinblastine, 0.987 with Afatinib (setting [1]) and 0.98 with Afatinib (setting [2]). Also, the IC50 in the assay with Vinblastine is 4.14 nM; with Afatinib (setting [1]), greater than 500 nM; with Afatinib (setting [2]), greater than 10000 nM.

In the case of RCH-ACV (B-cell leukaemia, suspension), the AUC with Vinblastine worked out at 0.472; with Afatinib (setting [1]), 0.979; with Afatinib (setting [2]), 0.977. For the same cell line, the IC50 in the assay with Vinblastine was 5.33 nM; with Afatinib (setting [1]), greater than 500 nM; with Afatinib (setting [2]) it was greater than 10000 nM.

As to RH-18 (rhabdomyosarcoma, adherent), the AUC was 0.899 with Vinblastine, 0.97 in the assay with Afatinib (setting [1]) and 0.962 with Afatinib (setting [2]). In addition, the results for the IC50 with Vinblastine, with Afatinib (setting [1]) and with Afatinib (setting [2]) were greater than 100 nM, greater than 500 nM and greater than 10000 nM, respectively.

Consider SK-GT-2 (stomach, adherent), for which the AUC with Vinblastine was determined as 0.552; in the assay with Afatinib (setting [1]), 0.317; in the assay with Afatinib (setting [2]), 0.131. For the same cell line, the IC50 with Vinblastine is 8.73 nM; in the assay with Afatinib (setting [1]), 9.35 nM; with Afatinib (setting [2]), less than 39.1 nM.

Regarding SK-MEL-31 (melanoma, adherent), the AUC in the assay with Vinblastine was 0.771; in the assay with Afatinib (setting [1]), 0.983; with Afatinib (setting [2]) it was 0.964. In addition, the IC50 is 49.4 nM with Vinblastine, greater than 500 nM in the assay with Afatinib (setting [1]) and greater than 10000 nM with Afatinib (setting [2]).

Consider SUP-B8 (B-cell leukaemia, suspension), for which the figures for the AUC with Vinblastine, in the assay with Afatinib (setting [1]) and with Afatinib (setting [2]) were 0.542, 0.989 and 0.979, respectively. For the same cell line, the IC50 is 8.13 nM with Vinblastine, greater than 500 nM in the assay with Afatinib (setting [1]) and greater than 10000 nM with Afatinib (setting [2]).

On to TC-YIK (cervix, suspension), for which the values for the AUC with Vinblastine, with Afatinib (setting [1]) and with Afatinib (setting [2]) were 0.513, 0.958 and 0.929, respectively. Further, the IC50 is 6.75 nM with Vinblastine, greater than 500 nM with Afatinib (setting [1]) and greater than 10000 nM with Afatinib (setting [2]).

Consider U-266 (myeloma, semi-adherent), for which the AUC stood at 0.519 with Vinblastine, 0.963 in the assay with Afatinib (setting [1]) and 0.957 with Afatinib (setting [2]). In addition, the IC50 with Vinblastine is 7.14 nM; in the assay with Afatinib (setting [1]), greater than 500 nM; with Afatinib (setting [2]) it was greater than 10000 nM.

As to “VMRC-LCD (lung adenocarcinoma, adherent)”, the AUC in the assay with Vinblastine amounted to 0.464; in the assay with Afatinib (setting [1]) it was 0.993; with Afatinib (setting [2]), 0.992. The half-maximal inhibitory concentration (IC50) in the assay with Vinblastine is 5.07 nM; with Afatinib (setting [1]), greater than 500 nM; with Afatinib (setting [2]), greater than 10000 nM.

As for ZR-75-30 (breast, adherent), the AUC in the assay with Vinblastine amounted to 0.823; with Afatinib (setting [1]) it was 0.698; with Afatinib (setting [2]) it was 0.522. The IC50 with Vinblastine is greater than 100 nM; with Afatinib (setting [1]), 152 nM; with Afatinib (setting [2]), 738 nM.
